The list shows a part of the results. At the low end of the ranking the order means little.
These sequences were tested against MAX:MAX (p21) (UniProt P61244-2) (assay: protein-binding microarray (anti-MAX antibody)). Details: PBM: 15 mM Tris-HCl pH 7.5, 100 mM KCl, 0.075% NP40, 7.5 mM beta-mercaptoethanol, 375 ng/ul BSA, 8 ng/ul poly(dA-dT):(dA-dT), 550 ng complex, 60 min, room …; high values mean tight binding; double strand, one strand shown; sequences stand for … in CCGGC…TTAATAGCTAAGATTACTATATCGACG.

Sequence | binding signal (log2 normalized fluorescence)
TGAATGACGGTA | -0.136
TGATACGTGGGA | 0.492
TGACCGGATGTA | -0.0482
TGAGCAATCGTA | -0.921
TGAGACGAGGTA | -0.385
TGACGACGAGTA | -0.369
TGAGCCGAGGTA | -0.66
TGAATTTAAGTA | -0.935
TGAAGTAGAGTA | -0.982
AAGCACGTGGTA | 3.27
TGACTGACAGTA | -0.187
GAACCCACTGCT | 0.141
TGACTAATCGTA | -1.05
TGACCTTGAGTA | -0.169
TGAAACCCTGTA | -0.312
TGACCGTGCGTA | 1.1
TGAGGGCGCGTA | -0.0439
TGACACACGGTC | 1.84
TGATGGATGGTA | -0.0451
TGAGATGTGGTA | 0.0154
TGACCAGTAGTA | -0.733
TGACATTCCGTA | 0.322

Sequence | binding signal (log2 normalized fluorescence)
TGAGTCACCGTA | -0.491
TGAGGGGGTGTA | 1.88
TGATCCTATGTA | -0.7
TGATGCTCTGTA | -0.0739
TGACTTAGTGTA | -0.68
TGAGTACAGGTA | -0.707
TGACCCTTGGTA | -0.517
TGAGATCTGGTA | -0.929
TGACATACCGTA | 0.412
TGATATAAAGTA | -1.07
TGATCCGTCGTA | -1.06
TGAGAGTGAGTA | -0.581
TGATCGCGAGTA | 0.281
TTACACGTGGTC | 3.19
TGACTAGTTGTA | -0.869
TGAGTGCCTGTA | 0.0743
TGAACTACAGTA | -0.703
TGATTACCCGTA | -0.535
TGACGAACCGTA | -0.642
TGATACAAAGTA | -0.7
TGCCACGTAGGA | 1.59
TGAGGGTTGGTA | -0.4

Sequence | binding signal (log2 normalized fluorescence)
TCCGACGTGGTA | 2.2
TGATACGTGTAA | 0.85
TGAGATCATGTA | 0.189
TGATTCGCAGTA | -1.21
TGAATGCCGGTA | 0.485
TGAATACGAGTA | -0.568
TTACATGTGGTA | 3.04
TGAATTCGGGTA | -1.04
TGAATAAAAGTA | -1.21
TGATACCCGGTA | -0.81
AGACCCGTGGTA | 2.71
TGAACAACGGTA | -0.207
TGACCTGCCGTA | 0.0281
TAGAGTTTACCG | -1.5
TGAACCGGCGTA | -0.299
TGATCGTTAGTA | -0.865
TGACACGTAGCA | 1.7
TGATGTTTGGTA | 0.0123
TGACACGGTGTA | 1.64
TGACACGTCCTA | 1.36
TGAGTGGCCGTA | 0.691
TGAACCCCGGTA | -0.524

Sequence | binding signal (log2 normalized fluorescence)
TTCGACGTGGTA | 2.07
TGAAGGGACGTA | -0.603
GGACACGTAGTA | 2.31
TGATAAAGGGTA | -0.934
TGAATGCACGTA | 1.15
TGATGGGCAGTA | -0.108
TGAAAGAGCGTA | -0.476
TGCTTCATGGTT | 0.347
TGATCGCGTGTA | 2.93
TGAACATGCGTA | 2.73
TGAGATTAGGTA | -1.1
TGATCTTTGGTA | -1.44
TAACACGCGGTA | 3.35
TGACGAATAGTA | -0.763
TGATAATTTGTA | -1.46
TGTGGCGTGGTA | 2.66
TAACAGGTGATA | 2.24
TGACTGGAAGTA | -0.308
TGATCTTCGGTA | -1.31
TGAAATAGTGTA | -0.792
TGAAACAATGTA | 0.429
TGACACGTGCGT | 3.25
